From paper PMC13450841 (PLOS Pathogens, 2026)

Tested on: P. aeruginosa PA103

Question: For `[H]/N=C(\N/C(=N/[H])NCCCCCCNC(=N)NC(=N)Nc1ccc(Cl)cc1)Nc1ccc(Cl)cc1` [chlorhexidine], which “Bactericidal activity across a range of concentrations” value is on record?
Answer: Its value is “dose-dependent bactericidal activity at higher concentrations”.
